Where a name gives a salt, the structure may show the parent alone. ± gives the standard deviation of the averaged measurements. Some of the results follow.
Legend:
[1] = tested on: murine small intestinal organoids (ENR+CD Paneth differentiation); test: cellular ATP (CellTiter-Glo 3D) relative to plate median (log10 fold change); higher = more viable cells; conditions: 6 d
[2] = tested on: murine small intestinal organoids (ENR+CD Paneth differentiation); test: carbachol-stimulated secreted lysozyme activity relative to plate median (log10 fold change); higher = more Paneth cell lysozyme secretion; conditions: 6 d, carbachol 10 µM
[3] = tested on: murine small intestinal organoids (ENR+CD Paneth differentiation); test: basal (non-stimulated) secreted lysozyme activity relative to plate median (log10 fold change); higher = more Paneth cell lysozyme secretion; conditions: 6 d
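Wherever basal (non-stimulated) secreted lysozyme activity relative to plate median is given: ISC-enriched organoid precursors grown as 2.5D pseudo-monolayer on Matrigel, compound given on day 0 and day 3, plate values LOESS-normalized before median fold change, three murine donors.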
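Wherever cellular ATP (CellTiter-Glo 3D) relative to plate median is given: 2.5D pseudo-monolayer culture of ISC-enriched organoids partly embedded atop Matrigel, compound added on day 0 and again on day 3, per-plate LOESS correction before median fold change.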

SMILES	cellular ATP (log10) ([1]; 0.08 µM)	cellular ATP (log10) ([1]; 0.4 µM)	cellular ATP (log10) ([1]; 2 µM)	cellular ATP (log10) ([1]; 10 µM)	carbachol-stimulated secreted lysozyme activity (log10) ([2]; 0.08 µM)	carbachol-stimulated secreted lysozyme activity (log10) ([2]; 0.4 µM)	carbachol-stimulated secreted lysozyme activity (log10) ([2]; 2 µM)	carbachol-stimulated secreted lysozyme activity (log10) ([2]; 10 µM)	basal (log10) ([3]; 0.08 µM)	basal (log10) ([3]; 0.4 µM)	basal (log10) ([3]; 2 µM)	basal (log10) ([3]; 10 µM)
CCOC(=O)c1cncn1[C@H](C)c1ccccc1 [Etomidate]	0.0841 ± 0.039	0.00574 ± 0.32	0.163 ± 0.19	0.0392 ± 0.23	0.12 ± 0.18	0.105 ± 0.17	0.0576 ± 0.089	0.00861 ± 0.3	-0.00752 ± 0.025	0.0366 ± 0.13	0.015 ± 0.016	-0.00116 ± 0.15
CC(=O)O[C@H]1C[C@@H]2CC[C@@H]3[C@H](CC[C@@]4(C)[C@H]3C[C@H]([N+]3(C)CCCCC3)[C@@H]4OC(C)=O)[C@@]2(C)C[C@@H]1[N+]1(C)CCCCC1 [Pancuronium dibromide]	0.217 ± 0.12	0.226 ± 0.062	-0.0122 ± 0.22	0.0621 ± 0.21	0.211 ± 0.23	0.142 ± 0.19	0.109 ± 0.017	-0.0464 ± 0.16	0.128 ± 0.085	0.0466 ± 0.074	0.0925 ± 0.0031	0.0347 ± 0.13
CCc1c(C(=O)C(N)=O)c2c(OCC(=O)O)cccc2n1Cc1ccccc1	0.405 ± 0.12	0.18 ± 0.26	0.166 ± 0.2	0.127 ± 0.15	0.0181 ± 0.23	0.11 ± 0.16	0.1 ± 0.022	0.106 ± 0.26	0.073 ± 0.14	0.158 ± 0.23	0.157 ± 0.089	0.0938 ± 0.16
C[C@@H]1O[C@@H](O[C@H]2C[C@@H](O)[C@]3(CO)[C@H]4[C@H](O)C[C@]5(C)[C@@H](C6=CC(=O)OC6)CC[C@]5(O)[C@@H]4CC[C@]3(O)C2)[C@H](O)[C@H](O)[C@H]1O [Ouabain]	0.00966 ± 0.18	0.122 ± 0.087	0.0795 ± 0.21	-0.288 ± 0.6	0.0528 ± 0.035	0.0518 ± 0.0088	0.0248 ± 0.037	0.122 ± 0.013	-0.00291 ± 0.046	0.0361 ± 0.056	0.0106 ± 0.02	0.165 ± 0.32
Cn1cc(C2=C(c3cn(C4CCN(Cc5ccccn5)CC4)c4ccccc34)C(=O)NC2=O)c2ccccc21	0.236 ± 0.13	0.475 ± 0.25	0.251 ± 0.087	-0.0812 ± 0.057	0.0932 ± 0.06	0.302 ± 0.29	0.0354 ± 0.079	-0.302 ± 0.08	0.0854 ± 0.0086	0.131 ± 0.065	0.0527 ± 0.076	-0.116 ± 0.031
COc1cc(-n2c(=S)[nH]c3ccccc3c2=O)c(Cl)cc1Cl [Mdivi-1]	0.00809 ± 0.13	-0.0312 ± 0.28	-0.112 ± 0.13	-0.527 ± 0.087	0.0428 ± 0.016	0.0977 ± 0.045	-0.0492 ± 0.23	-0.462 ± 0.047	0.177 ± 0.18	0.156 ± 0.25	-0.0222 ± 0.17	-0.268 ± 0.096
COc1ccc(C(=O)N2CCCC2=O)cc1 [Aniracetam]	-0.0882 ± 0.14	0.112 ± 0.15	0.0545 ± 0.16	0.019 ± 0.082	0.048 ± 0.021	0.174 ± 0.13	-0.0799 ± 0.051	-0.0756 ± 0.1	0.0889 ± 0.072	0.0558 ± 0.075	0.0318 ± 0.1	0.012 ± 0.099
CN1CCCCC1Cn1cc(C(=O)c2cc([N+](=O)[O-])ccc2I)c2ccccc21 (stereo unspecified)	0.159 ± 0.19	-0.0539 ± 0.27	-0.0616 ± 0.06	-0.000732 ± 0.11	0.0442 ± 0.23	0.147 ± 0.32	0.0123 ± 0.15	-0.121 ± 0.041	0.0521 ± 0.062	0.00402 ± 0.067	-0.0142 ± 0.036	-0.00317 ± 0.0059
O=C1CC[C@@]2(O)[C@H]3Cc4ccc(O)c5c4[C@@]2(CCN3CC2CC2)[C@H]1O5 [Naltrexone HCl]					0.0198 ± 0.084	0.00879 ± 0.072	0.0547 ± 0.074	0.0348 ± 0.11	-0.00767 ± 0.035	-0.00496 ± 0.046	0.019 ± 0.08	0.0347 ± 0.066
O=C(O[C@H]1C[C@H]2CC[C@@H](C1)[N+]21CCCC1)C(O)(c1ccccc1)c1ccccc1 [Trospium chloride]	0.139 ± 0.14	0.00615 ± 0.21	0.23 ± 0.09	0.135 ± 0.11	0.0945 ± 0.017	0.175 ± 0.13	-0.00598 ± 0.092	0.0933 ± 0.012	0.127 ± 0.051	0.12 ± 0.046	-0.00119 ± 0.0072	0.0855 ± 0.058
Cc1cc(SCc2sc(-c3ccc(C(F)(F)F)c(F)c3)nc2C)ccc1OCC(=O)O	-0.751 ± 1.3	-0.489 ± 0.89	-0.249 ± 0.18	-0.451 ± 0.15	0.0977 ± 0.023	0.182 ± 0.02	0.0564 ± 0.11	-0.234 ± 0.11	0.0521 ± 0.15	0.0447 ± 0.044	0.0265 ± 0.022	-0.152 ± 0.14
C[C@@]12N[C@@H](Cc3ccccc31)c1ccccc12 [(-)-MK 801 Maleate]	0.127 ± 0.087	-0.377 ± 0.073	-0.702 ± 0.46	-0.936 ± 0.39	0.0174 ± 0.027	-0.238 ± 0.033	-0.438 ± 0.12	-0.488 ± 0.026	0.00825 ± 0.055	-0.0992 ± 0.12	-0.256 ± 0.14	-0.259 ± 0.094
O=c1[nH]c2ccc(Cl)cc2c(N[C@@H]2CN3CCC2CC3)c1-c1nc2ccccc2[nH]1	-0.256 ± 0.17	-0.853 ± 0.38	-0.861 ± 0.2	-1.55 ± 0.68	-0.295 ± 0.15	-0.397 ± 0.11	-0.41 ± 0.079	-0.389 ± 0.11	-0.155 ± 0.1	-0.24 ± 0.086	-0.22 ± 0.12	-0.14 ± 0.071
Cc1cc2c(C(C)C)c(O)c(O)c(C=O)c2c(O)c1-c1c(C)cc2c(C(C)C)c(O)c(O)c(C=O)c2c1O	-0.198 ± 0.42	0.0186 ± 0.29	-0.216 ± 0.19	-0.0557 ± 0.073	0.0872 ± 0.12	0.0243 ± 0.065	-0.0326 ± 0.029	-0.0342 ± 0.042	-0.0489 ± 0.054	-0.068 ± 0.04	-0.0358 ± 0.074	-0.0519 ± 0.049
Fc1cc(F)c2c(c1)[C@H]1C=CC[C@H]1C(c1cccnc1)N2 (stereo partly specified) [Golgicide A]	0.167 ± 0.26	0.227 ± 0.18	0.339 ± 0.26	-0.22 ± 0.51	0.158 ± 0.28	0.303 ± 0.015	0.0963 ± 0.012	-0.317 ± 0.28	0.267 ± 0.19	0.0661 ± 0.11	0.171 ± 0.27	-0.161 ± 0.18

Source: the supplement of paper PMC9046079
